Data taken from patent US5239059A, “Ion-channel forming peptides” (The Children's Hospital of Philadelphia, priority 1991, dated 1993).
Part of at least one peptide drawing is inferred or uncertain, most often the ends. No end group written: not given here.

Experiments:
Experiment in all cases: Antibacterial assay (MIC, broth microdilution, NCCLS M7-T2)
Type in all cases: cell-based
S. aureus ATCC 25923 = conditions: S. aureus ATCC 25923, Mueller Hinton broth, 16-20 hours at 37° C., lowest concentration giving a clear well
P. aeruginosa ATCC = conditions: Mueller Hinton broth, 16-20 hours at 37° C., lowest concentration giving a clear well
E. coli ATCC 25922 = conditions: E. coli ATCC 25922, Mueller Hinton broth, 16-20 hours at 37° C., lowest concentration giving a clear well

Substance: GVLSFVIGYLKKLGTGKLNKVL-NH2 [Peptide 6, (SEQ ID NO:6)--NH2]
- MIC S. aureus (S. aureus ATCC 25923): 16 µg/mL
- MIC P. aeruginosa (P. aeruginosa ATCC): 128 µg/mL

Substance: GVLSFVIGYLKKLGTGHLNHVL-NH2 [Peptide 4, (SEQ ID NO:4)--NH2]
- MIC S. aureus (S. aureus ATCC 25923): 2,4 μg/ml
- MIC P. aeruginosa (P. aeruginosa ATCC): 32,64 μg/ml
- MIC E. coli (E. coli ATCC 25922): 4,8 μg/ml

Substance: GVLSNVIGYLKKLGTGALNAVLKQ [Peptide 8, (SEQ ID NO:8)]
- MIC S. aureus (S. aureus ATCC 25923): 64,128 μg/ml
- MIC P. aeruginosa (P. aeruginosa ATCC): 256 µg/mL
- MIC E. coli (E. coli ATCC 25922): 64 µg/mL

Substance: GVLSNVIGYLKKLGTGALNAVL-NH2 [Peptide 1, (SEQ ID NO:1)--NH2]
- MIC S. aureus (S. aureus ATCC 25923): 64,128 μg/ml

Substance: GVLSKVIGYLKKLGTGKLNKVL-NH2 [Peptide 7, (SEQ ID NO:7)--NH2]
- MIC S. aureus (S. aureus ATCC 25923): 16 µg/mL
- MIC P. aeruginosa (P. aeruginosa ATCC): 128 µg/mL
- MIC E. coli (E. coli ATCC 25922): 16 µg/mL

Substance: GVLSNVIGYLKKLGTGKLNKVL-NH2 [Peptide 5, (SEQ ID NO:5)--NH2]
- MIC S. aureus (S. aureus ATCC 25923): 64 µg/mL
- MIC P. aeruginosa (P. aeruginosa ATCC): 256 µg/mL
- MIC E. coli (E. coli ATCC 25922): 32 µg/mL

Substance: GVLSNVIGYLKKLGTGALNAVLKQ-NH2 [Peptide 8A, (SEQ ID NO:8)--NH2]
- MIC S. aureus (S. aureus ATCC 25923): 32 µg/mL
- MIC P. aeruginosa (P. aeruginosa ATCC): 128 µg/mL
- MIC E. coli (E. coli ATCC 25922): 32 µg/mL

Substance: GVLSQVIGYLKKLGTGALNAVL-NH2 [Peptide 3, (SEQ ID NO:3)--NH2]
- MIC S. aureus (S. aureus ATCC 25923): 8 µg/mL
- MIC P. aeruginosa (P. aeruginosa ATCC): > 256 µg/mL
- MIC E. coli (E. coli ATCC 25922): 32 µg/mL

Substance: GVLSKVIGYLKKLGTGALNAVL-NH2 [Peptide 2, (SEQ ID NO:2)--NH2]
- MIC S. aureus (S. aureus ATCC 25923): 4,8 μg/ml
- MIC P. aeruginosa (P. aeruginosa ATCC): > 256 µg/mL
- MIC E. coli (E. coli ATCC 25922): 8,16 μg/ml
